B1: DOMAIN_5921 (protein, listed as Homo sapiens)
chain: SWGPLSFMDVFVDFTWEEWQLLDPAQKCLYRSVMLENYSNLVSLGYQHTKPDIIFKLEQGEELCMVQAQVPNQTCPNTVWK
B2: DOMAIN_6169 (protein, listed as Homo sapiens)
chain: SQGLVTFGDVAVDFSQEEWEWLNPIQRNLYRKVMLENYRNLAWLGLCVSKPDVISSLEQGKEPWTVKRKMTRAWCPDLKAV
B3: DOMAIN_6382 (protein, listed as Gopherus agassizii)
chain: LVPVTFEDVAVYFSREEWGLLDDMQRTFYRDVMKENYQTVVSLPGSSIPKPDVISQMERGEEPWVPDLQKLGPHQTPENPL
B4: DOMAIN_5843 (protein, listed as Homo sapiens)
chain: VQEPVTFKDVAVDFTQEEWGQLDLVQRTLYRDVMLETYGHLLSVGNQIAKPEVISLLEQGEEPWSVEQACPQRTCPEWVRN
B5: DOMAIN_6249 (protein, listed as Saimiri boliviensis)
chain: B4 chain with V66L, A69T, T74A, V79M
B6: DOMAIN_6458 (protein, listed as Gopherus agassizii)
chain: FQIPVTFEEVAVYFTQGQGALLDPAQRALYRDVMQENYETVTSLGFPIPKPDLIARLERGEEPWVLDLQASDESVSLRGTC
B7: DOMAIN_6501 (protein, listed as Paroedura picta)
chain: AQVAFEDVAVYFTEEQWALLDHSQRALYRDVMQENYETVASLGLPIPGPDSISRLQQREESRIEAQPVLEGNDVSSDDDLG
B8: DOMAIN_5866 (protein, listed as Homo sapiens)
chain: SQASVSFKDVTIEFTQEEWQQMAPVQKNLYRDVMLENYSNLVSVGYCCFKPEVIFKLEQGEEPWFSEEEFSNQSHPKDYRG
B9: DOMAIN_6555 (protein, listed as Paroedura picta)
chain: AQAGVSFEEVAVHFSPGEWSLLQPAQRALYKEVMLENFGHVASLGPPGATPDLIAWLQEGLFLLGGDEEAGSAGDAWRSAT
B10: DOMAIN_5822 (protein, listed as Homo sapiens)
chain: AQESVTFEDVAVNFTNREWQCLTYAQRHLYKDVMLENYGNMVSLGFPFPKPPLISHLEREVDPCVQDPQDRESLSCSYPVS
B11: DOMAIN_6078 (protein, listed as Homo sapiens)
chain: QAEVTFEDVAVYLSREEWGRLGPAQRGLYRDVMLETYGNLVSLGVGPAGPKPGVISQLERGDEPWVLDVQGTSGKEHLRVN
B12: DOMAIN_5792 (protein, listed as Homo sapiens)
chain: EMGLLTFRDIAIEFSLEEWQCLDCAQRNLYRDVMLENYRNLVSLGIAVSKPDLITCLEQNKESQNIKRNEMVAKHPVTRSH
B13: DOMAIN_6577 (protein, listed as Terrapene carolina)
chain: FQGLVTFEEVAVYFTREEGALLDPTQRALYRDVMQENYETVVLLGKESFSKPDVISQLERGEEPWVPDLQGSEKERPEENF
B14: DOMAIN_5901 (protein, listed as Homo sapiens)
chain: SKAPITFGDLAIYFSQEEWEWLSPIQKDLYEDVMLENYRNLVSLGLSFRRPNVITLLEKGKAPWMVEPVRRRRAPDSGSKC
B15: DOMAIN_6172 (protein, listed as Homo sapiens)
chain: B14 chain with D76E, S77L, G78V, S79T, K80V, C81A
B16: DOMAIN_4968 (protein, listed as Callithrix sp.)
chain: RALTPVSMTAEAKCTGFTQGSVTFEDVAIYFSQEEWGLLDEAQRLLYRDVMLENFALLTSLVCWHGMEDEETPEQSVSVNG
B17: DOMAIN_6354 (protein, listed as Terrapene carolina)
chain: PSGLVTFEEVAVYFTREEGALLDPTQRALYRDVMQENYETVVLLGFPVSKPDVISQLERGEEPWVPDLQGSEKEVLPRAAC
B18: DOMAIN_6595 (protein, listed as Terrapene carolina)
chain: B17 chain with P1A, S2Q, L4P, R59Q, V65I
B19: DOMAIN_6038 (protein, listed as Homo sapiens)
chain: SLGSELFRDVAIVFSQEEWQWLAPAQRDLYRDVMLETYSNLVSLGLAVSKPDVISFLEQGKEPWMVERVVSGGLCPVLESR
B20: DOMAIN_6482 (protein, listed as Paroedura picta)
chain: FSLEDVSVSFSPAEWALLDPAQRALWREVMRENAENVAFLARSIGETLVEANNDPVSEGRLERSSGGAEEQISFPNGLAKR
B21: DOMAIN_5290 (protein, listed as Aotus trivirgatus)
chain: LAPEDHGSSYEGSVSFRDVAIDFSREEWRHLDLSQRNLYRDVMLETYSHLLSVGYQVPEAEVVMLEQGNEPWSLQGERPHQ
B22: DOMAIN_6063 (protein, listed as Homo sapiens)
chain: KPGTVSFADVAVYFSPEEWGCLRPAQRALYRDVMQETYGHLGALGFPGPKPALISWMEQESEAWSPAAQDPEKGERLGGAR
B23: DOMAIN_6293 (protein, listed as Rattus norvegicus)
chain: B22 chain with G3E, T4L, E17Q, D32E, Q35R, H40L, K73E, R76S, R81P
B24: DOMAIN_5774 (protein, listed as Homo sapiens)
chain: YQEMVTFEDVAVHFTKTEWTGLSPAQRALYRSVMLENFGNLTALGYPVPKPALISLLERGDMAWGLEAQDDPPAERTKNVC
B25: DOMAIN_6134 (protein, listed as Homo sapiens)
chain: ARGKSKSKAPITFGDLAIYFSQEEWEWLSPIQKDLYEDVMLENYRNLVSLGLSFRRPNVITLLEKGKAPWMVEPVRRRRAP
B26: DOMAIN_5782 (protein, listed as Homo sapiens)
chain: YQIPVSFKDVVVGFTQEEWHRLSPAQRALYRDVMLETYSNLVSVGYEGTKPDVILRLEQEEAPWIGEAACPGCHCWEDIWR
B27: DOMAIN_5943 (protein, listed as Mus musculus)
chain: SLGPLSFKDVAVAFSQEEWQQLDPEERTTYRDVMLETYSNLVSVGYDIIKPDVIIKLEQGEEPWIVEGAFSPQSYPDEIRH
B28: DOMAIN_6053 (protein, listed as Pongo sp.)
chain: MVTFEDVAVHFTKTEWTGLSPAQRALYRSVMLENFGNLTALGYPVPKPALISLLEGGDMAWGLEAQDDPPAETTKNVRKDV
B29: DOMAIN_5994 (protein, listed as Pongo sp.)
chain: RQEPVTFEDVAVYFTQNEWASLDSVQRALYREVMLENYANVASLAFPFTTPVLVSQLEQGELPWGLDPWEPMGREALRGIC
B30: DOMAIN_6539 (protein, listed as Paroedura picta)
chain: AQRPVTFEDVAVYFSEAQGTLLDPDQKALYREVMMENYENVASLGSLTPKPELIIRLERGEEPWVSDPGDAPVSGDFRKSH
B31: DOMAIN_5742 (protein, listed as Homo sapiens)
chain: CQELVTFEDVAVYFSLEEWERLEADQRGLYQEVMQENYGILVSLGYPIPKPDLIFRLEQGEEPWVPDSPRPEEGDIVTGVY
B32: DOMAIN_5765 (protein, listed as Rattus norvegicus)
chain: SKAPVTFGDLAIYFSQEEWEWLSPNQKDLYEDVMLENYHNLVSVGLACRRPNIIALLEKGKAPWMVEPSRKRRGPELGSKD
B33: DOMAIN_5989 (protein, listed as Mus musculus)
chain: B32 chain with N25M, M65V, V66I, K71R, R73W, L77S, D81Y
B34: DOMAIN_5914 (protein, listed as Homo sapiens)
chain: ALRSVMFSDVSIDFSPEEWEYLDLEQKDLYRDVMLENYSNLVSLGCFISKPDVISSLEQGKEPWKVVRKGRRQYPDLETKY
B35: DOMAIN_5896 (protein, listed as Bos taurus)
chain: HQEVVTFEDVAVYFTRTEWAGLSPAQRALYRSVMLEIYRSLTSLGYPVPKPALISLLERGDLPVGLETQDNPPAQGTRDIY
B36: DOMAIN_6599 (protein, listed as Terrapene carolina)
chain: FQMPVTFEEVAVYFTQGQGALLDPAQRALYRDVMQDNYEMVTSLGFPIPKPELIARLERGEEPWVPDLQACEERRLPRCTR
B37: DOMAIN_5968 (protein, listed as Bos taurus)
chain: QAEVTFEDVAVFLSQEEWGLLGPAQKGLYREVMLETYRNLVSLGAGLAGPKPEVIAQLEQGDELWVLDMHGAEQPSVDGSA

Residue numbers refer to the chain shown, from its start.

Here are results for 37 molecules from US12551573B2, “Compositions and methods for the targeting of PCSK9” (Scribe Therapeutics Inc., priority 2022, dated 2026).

This assay concerns HBEGF locus. Type of assay: cell-based, human. As to conditions: high-throughput screen of dXR repression of the HBEGF gene; change in abundance of each domain in the library before and after diphtheria toxin selection.
Consider B1, for which the “Log2 (fold change)” value was 2.4715.
For B2, the “Log2 (fold change)” value is listed as 3.3909.
Turning to B3, the “Log2 (fold change)” value is 3.2875.
The value for B4 was 3.1821.
In the case of B5, the “Log2 (fold change)” value was found to be 3.5469.
As to B6, the “Log2 (fold change)” value turned out to be 2.8973.
In the case of B7, the “Log2 (fold change)” value worked out at 3.4172.
The value for B8 was 2.6362.
Consider B9, for which the “Log2 (fold change)” value is 3.534.
With B10, the “Log2 (fold change)” value came out at 2.9335.
Take B11: the “Log2 (fold change)” value amounted to 2.6246.
Then B12, with 3.0218; and B13, with 3.3168; and B14, with 3.2935.
As for B15, the “Log2 (fold change)” value is 3.883.
Regarding B16, the “Log2 (fold change)” value was found to be 3.0315.
Consider B17, for which the “Log2 (fold change)” value stood at 2.4812.
With B18, the “Log2 (fold change)” value is 2.2407.
Consider B19, for which the “Log2 (fold change)” value is listed as 3.3315.
The value for B20 was 3.3106; that for B21 was 3.0993; that for B22 was 3.5653.
Take B23: the “Log2 (fold change)” value is given as 2.6707.
Then B24, with 2.9608; and B25, with 2.7081.
Consider B26, for which the “Log2 (fold change)” value stood at 2.9086.
On to B27, for which the “Log2 (fold change)” value is given as 2.501.
Consider B28, for which the “Log2 (fold change)” value came out at 3.2566.
Turning to B29, the “Log2 (fold change)” value worked out at 2.9214.
Turning to B30, the “Log2 (fold change)” value is given as 3.2371.
Take B31: the “Log2 (fold change)” value was 2.8617.
In the case of B32, the “Log2 (fold change)” value was determined as 4.2973.
In the case of B33, the “Log2 (fold change)” value was 3.6632.
As to B34, the “Log2 (fold change)” value came to 2.5527.
Then B35, with 2.9429; and B36, with 3.3653; and B37, with 3.2856.
